Data reported in publication PMC7010746.
No constants are given. Whether binding was seen depends on the method and setting. In cells and extracts the contact can be indirect. Some entries that bind do so weakly or less than the wild type. Where a sequence is shown, tags or fusion partners need not be part of it.

Protein sequences, listed by entry. Tags and fused reporters are not part of them.
UniProt A9QM74: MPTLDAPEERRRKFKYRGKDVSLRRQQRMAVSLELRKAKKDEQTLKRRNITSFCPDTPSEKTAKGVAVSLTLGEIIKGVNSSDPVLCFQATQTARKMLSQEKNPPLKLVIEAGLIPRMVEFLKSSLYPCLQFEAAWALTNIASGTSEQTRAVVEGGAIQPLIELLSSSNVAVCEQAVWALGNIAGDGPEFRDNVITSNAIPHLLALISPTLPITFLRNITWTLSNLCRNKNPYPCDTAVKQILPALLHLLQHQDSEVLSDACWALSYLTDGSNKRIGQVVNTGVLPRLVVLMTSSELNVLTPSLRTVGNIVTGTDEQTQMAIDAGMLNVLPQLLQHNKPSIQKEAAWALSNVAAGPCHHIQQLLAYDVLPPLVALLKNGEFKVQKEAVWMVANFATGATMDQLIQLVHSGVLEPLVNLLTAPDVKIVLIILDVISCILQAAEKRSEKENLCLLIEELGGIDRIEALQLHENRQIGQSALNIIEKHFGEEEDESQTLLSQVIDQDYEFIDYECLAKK
UniProt Q92973: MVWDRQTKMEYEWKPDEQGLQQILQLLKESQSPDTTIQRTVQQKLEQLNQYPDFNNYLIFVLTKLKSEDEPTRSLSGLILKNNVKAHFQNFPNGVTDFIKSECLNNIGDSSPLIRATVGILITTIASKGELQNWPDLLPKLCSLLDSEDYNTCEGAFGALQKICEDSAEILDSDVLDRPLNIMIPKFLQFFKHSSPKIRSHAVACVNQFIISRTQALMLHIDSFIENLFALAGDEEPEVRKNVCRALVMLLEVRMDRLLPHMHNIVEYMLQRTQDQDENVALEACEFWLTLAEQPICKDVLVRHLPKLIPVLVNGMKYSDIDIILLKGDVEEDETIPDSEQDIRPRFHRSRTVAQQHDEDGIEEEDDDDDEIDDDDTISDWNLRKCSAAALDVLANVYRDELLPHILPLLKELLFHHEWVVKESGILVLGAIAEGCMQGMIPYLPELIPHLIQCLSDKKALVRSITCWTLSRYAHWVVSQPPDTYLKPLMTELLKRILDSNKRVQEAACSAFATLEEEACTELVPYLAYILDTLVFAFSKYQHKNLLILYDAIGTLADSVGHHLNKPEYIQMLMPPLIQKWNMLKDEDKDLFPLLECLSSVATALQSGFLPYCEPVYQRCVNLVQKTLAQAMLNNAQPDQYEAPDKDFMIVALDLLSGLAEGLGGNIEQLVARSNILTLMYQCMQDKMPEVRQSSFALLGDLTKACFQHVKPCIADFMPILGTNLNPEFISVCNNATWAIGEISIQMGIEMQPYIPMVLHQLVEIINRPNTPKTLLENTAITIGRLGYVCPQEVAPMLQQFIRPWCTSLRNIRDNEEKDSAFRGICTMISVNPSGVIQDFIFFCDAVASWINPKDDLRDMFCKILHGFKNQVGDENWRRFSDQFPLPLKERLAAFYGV
UniProt Q92793: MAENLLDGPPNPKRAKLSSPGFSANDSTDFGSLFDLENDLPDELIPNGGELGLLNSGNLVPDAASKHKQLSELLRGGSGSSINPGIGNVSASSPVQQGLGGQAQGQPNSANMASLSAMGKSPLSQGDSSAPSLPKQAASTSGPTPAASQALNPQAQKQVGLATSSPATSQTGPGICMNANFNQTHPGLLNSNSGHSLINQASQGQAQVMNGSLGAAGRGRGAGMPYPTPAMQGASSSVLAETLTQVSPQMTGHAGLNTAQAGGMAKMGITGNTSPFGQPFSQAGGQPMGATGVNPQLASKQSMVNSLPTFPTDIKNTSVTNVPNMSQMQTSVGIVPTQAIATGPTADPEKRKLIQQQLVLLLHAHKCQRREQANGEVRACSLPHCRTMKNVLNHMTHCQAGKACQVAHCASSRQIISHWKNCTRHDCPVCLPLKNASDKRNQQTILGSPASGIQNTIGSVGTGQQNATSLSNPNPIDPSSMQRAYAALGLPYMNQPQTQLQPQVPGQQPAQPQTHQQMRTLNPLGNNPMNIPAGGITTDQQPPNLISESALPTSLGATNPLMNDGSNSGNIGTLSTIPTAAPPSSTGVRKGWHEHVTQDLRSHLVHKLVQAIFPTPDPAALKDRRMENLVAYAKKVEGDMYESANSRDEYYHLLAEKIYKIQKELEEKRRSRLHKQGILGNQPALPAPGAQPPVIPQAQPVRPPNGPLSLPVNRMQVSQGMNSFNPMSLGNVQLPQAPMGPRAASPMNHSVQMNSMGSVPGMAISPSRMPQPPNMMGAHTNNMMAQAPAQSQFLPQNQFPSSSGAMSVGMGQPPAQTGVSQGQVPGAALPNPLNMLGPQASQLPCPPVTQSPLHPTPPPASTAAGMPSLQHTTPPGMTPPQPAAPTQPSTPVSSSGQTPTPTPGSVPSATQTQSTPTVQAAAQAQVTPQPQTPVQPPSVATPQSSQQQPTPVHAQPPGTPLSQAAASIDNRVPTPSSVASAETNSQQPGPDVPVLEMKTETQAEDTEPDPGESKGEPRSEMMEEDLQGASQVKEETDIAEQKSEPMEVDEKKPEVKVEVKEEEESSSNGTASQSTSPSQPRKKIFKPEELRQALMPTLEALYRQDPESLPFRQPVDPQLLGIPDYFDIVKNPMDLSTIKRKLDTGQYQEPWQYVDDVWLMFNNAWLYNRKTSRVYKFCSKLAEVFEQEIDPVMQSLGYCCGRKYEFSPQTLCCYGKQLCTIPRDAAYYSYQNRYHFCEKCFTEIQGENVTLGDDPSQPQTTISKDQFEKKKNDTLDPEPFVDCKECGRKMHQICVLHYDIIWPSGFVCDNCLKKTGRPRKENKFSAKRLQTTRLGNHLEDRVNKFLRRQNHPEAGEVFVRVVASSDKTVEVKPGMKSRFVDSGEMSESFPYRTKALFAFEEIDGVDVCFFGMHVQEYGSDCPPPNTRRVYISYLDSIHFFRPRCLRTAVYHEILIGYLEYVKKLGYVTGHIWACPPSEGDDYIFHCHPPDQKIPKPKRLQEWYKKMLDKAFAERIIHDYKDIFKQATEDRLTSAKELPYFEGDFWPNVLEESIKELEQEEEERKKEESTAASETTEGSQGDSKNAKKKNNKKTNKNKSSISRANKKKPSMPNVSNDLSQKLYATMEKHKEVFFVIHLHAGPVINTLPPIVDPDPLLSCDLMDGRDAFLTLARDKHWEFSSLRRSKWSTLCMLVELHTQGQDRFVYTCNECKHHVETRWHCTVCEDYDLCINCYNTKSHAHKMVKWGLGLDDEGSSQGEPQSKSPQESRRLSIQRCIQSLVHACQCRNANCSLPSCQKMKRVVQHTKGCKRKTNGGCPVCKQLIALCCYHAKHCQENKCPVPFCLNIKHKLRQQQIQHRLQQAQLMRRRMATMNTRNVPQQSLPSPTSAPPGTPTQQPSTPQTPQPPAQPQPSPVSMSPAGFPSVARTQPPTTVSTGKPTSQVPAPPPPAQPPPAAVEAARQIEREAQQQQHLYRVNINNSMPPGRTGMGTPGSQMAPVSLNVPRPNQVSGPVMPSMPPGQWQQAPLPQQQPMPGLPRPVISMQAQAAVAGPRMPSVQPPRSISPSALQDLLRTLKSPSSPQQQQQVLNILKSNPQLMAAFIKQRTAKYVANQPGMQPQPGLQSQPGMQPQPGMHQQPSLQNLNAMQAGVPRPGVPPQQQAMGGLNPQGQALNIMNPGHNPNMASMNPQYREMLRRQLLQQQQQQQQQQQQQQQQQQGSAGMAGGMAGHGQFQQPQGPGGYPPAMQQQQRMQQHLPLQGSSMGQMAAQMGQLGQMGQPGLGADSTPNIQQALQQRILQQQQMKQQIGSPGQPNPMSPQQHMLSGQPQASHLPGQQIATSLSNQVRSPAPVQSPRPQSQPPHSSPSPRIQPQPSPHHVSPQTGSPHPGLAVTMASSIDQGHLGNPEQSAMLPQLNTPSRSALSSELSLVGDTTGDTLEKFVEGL

Tests used:
[1] = molecular target: T1, SIRT2 (isoform 1) tagged at its C-terminus with GFP (UniProt Q8IXJ6); experiment: co-IP; HeLa cells transfected with GFP-tagged SIRT2 or GFP alone, RIPA lysate, GFP-Trap agarose beads 1 h at 4 °C, washes up to 300 mM NaCl, Western blot of endogenous proteins
T1 sequence: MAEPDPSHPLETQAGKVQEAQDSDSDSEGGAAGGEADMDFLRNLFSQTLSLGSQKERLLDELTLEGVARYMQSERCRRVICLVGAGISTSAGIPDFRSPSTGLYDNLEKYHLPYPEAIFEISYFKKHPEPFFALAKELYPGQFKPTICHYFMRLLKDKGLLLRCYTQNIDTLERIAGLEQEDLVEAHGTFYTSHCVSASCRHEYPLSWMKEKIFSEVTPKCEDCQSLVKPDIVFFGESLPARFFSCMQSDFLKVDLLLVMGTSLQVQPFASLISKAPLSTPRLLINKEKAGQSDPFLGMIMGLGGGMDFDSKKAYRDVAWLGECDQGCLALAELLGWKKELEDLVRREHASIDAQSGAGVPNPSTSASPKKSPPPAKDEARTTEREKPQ

[2] = molecular target: T2, SIRT2^1–356 (truncated SIRT2 lacking the unstructured C-terminal end), C-terminal GFP (UniProt Q8IXJ6); experiment: as above
T2 sequence: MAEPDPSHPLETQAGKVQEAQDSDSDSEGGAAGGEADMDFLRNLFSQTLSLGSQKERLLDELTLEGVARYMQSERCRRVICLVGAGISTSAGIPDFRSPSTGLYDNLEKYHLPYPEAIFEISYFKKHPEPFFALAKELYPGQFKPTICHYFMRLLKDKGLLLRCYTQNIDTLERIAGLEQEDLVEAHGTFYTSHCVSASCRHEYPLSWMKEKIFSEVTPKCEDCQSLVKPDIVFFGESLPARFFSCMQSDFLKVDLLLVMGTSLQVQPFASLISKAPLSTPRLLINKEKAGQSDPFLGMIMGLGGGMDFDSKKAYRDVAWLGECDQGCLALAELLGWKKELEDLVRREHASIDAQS

[3] = molecular target: T3, SIRT2^1–356 tagged at its N-terminus with mCherry (UniProt Q8IXJ6); experiment: co-IP; HeLa cells transfected with mCherry-tagged SIRT2, RIPA lysate, RFP-Trap agarose beads, Western blot (Fig. S2B)
T3 sequence: T2 sequence

[4] = molecular target: T4, SIRT2 with an N-terminal mCherry tag (UniProt Q8IXJ6); experiment: as above
T4 sequence: T1 sequence

[5] = molecular target: T1, SIRT2 (isoform 1) tagged at its C-terminus with GFP; experiment: co-IP; immunoprecipitation from HEK293T cells, Western blot (Fig. S2A)

binding [1]	binding [2]	binding [3]	binding [4]	binding [5]	Substance
no binding	–	–	–	–	KPNA7 (from UniProt A9QM74 1-516)
binds	binds	binds	binds	binds	Transportin 1 (TNPO1) (from UniProt Q92973 1-898)
binds	binds	–	–	–	CREB-binding protein (CBP) (from UniProt Q92793 1-2442)
